About 340 (0.77%) of roughly 44,000 compounds were called active. Not shown: some 5% with an inconclusive outcome. Calls follow the shape of the dose curve; as a rule, active = well fitted inhibition curve with a large enough effect; inconclusive = small, poorly fitted or top-dose-only effect; inactive = flat fitted curve, though single readings scatter. The list shows a part of the results.
experiment: Acumen qHTS Assay for Inhibitors of the mTORC1 Signaling Pathway in MEF (Tsc2-/-, p53-/-) Cells: Sytravon; settings: phospho-rpS6 immunofluorescence/PI, 24 h; series mostly up to 38.3 µM; activity change, negative = inhibition: at the top concentration;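 also: plate controls were DMSO for no effect and rapamycin for full effect; nearly all actives have a fitted effect of over 50% in size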
Summary of the method: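 Read-out: phospho-S6 Alexa-488 intensity over PI intensity per well, scored as % active cells using thresholds from rapamycin (7.5 nM) and DMSO controls. Tsc2-/-, p53-/- MEFs exposed to compound for 24 h; PI cell count recorded as viability.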

Activity change, negative = inhibition, inactive:
COc1ccc(C2=CC(c3ccccc3Cl)n3nc(-c4ccc(C)cc4)nc3N2)cc1 (configuration not stated) -3.97%
CCOC(=O)c1c(NC(=O)CCCOc2ccc(C)cc2)sc2c1CCC(C)C2 (configuration not stated) -6.59%
CCc1ccc(CNC(=O)c2ccc(CS(=O)c3ccc(Br)cc3)o2)cc1 (configuration not stated) -1.56%
CCc1nnc(SCC(=O)Nc2ccc(Cl)cc2F)c2cc3occc3n12 -11.8%
CCOC(=O)Cn1c(=O)n(-c2ccccc2OC)c2nc(-c3ccccc3)nc(C(N)=O)c21 7.14%
Cc1cccc(N2CCN(C(=O)c3cn(C)c4ccc(S(=O)(=O)N(C)C)cc4c3=O)CC2C)c1 (configuration not stated) -0.862%
CCn1c(C(=O)NCc2ccc(C)cc2)cc2sc(Cl)cc21 -18.9%
COc1ccc(-c2nc3ccccc3s2)cc1NC(=O)c1ccc(C#N)cc1F 7.68%
CCOCCc1nn2c(=O)cc(COC(=O)COc3ccc(C)c(C)c3)nc2s1 -13.5%
CC(C)c1ccc(NC(=O)c2ccc3oc(=O)c(S(=O)(=O)c4ccc(F)cc4)cc3c2)cc1 -3.54%
COc1cn(CC(=O)Nc2c(C)cc(C)cc2C)c(CN2CCCCC2)cc1=O 0.429%
CCOc1ccc(S(=O)(=O)NCCc2csc3nc(-c4ccc(OC)c(OC)c4)nn23)cc1 -11.8%
CCc1ccc(NC(=O)CC2C(=O)NCCN2C(=O)c2ccccc2OC)cc1 (configuration not stated) 1.84%
Cc1nc(SCc2cc(=O)c3cccc(F)c3[nH]2)n[nH]1 0.682%
CC(C)c1ccc(NC(=O)CSc2ncnc3c2sc2ccccc23)cc1 0.128%
COc1ccccc1CNCc1ccc(C(=O)O)s1 3.47%
Clc1cccc(CSc2nc(NCCc3ccccc3)c3ccccc3n2)c1 -11.9%
COc1ccc(NC(=O)Cn2ncc3c(C)n(Cc4cccc(Cl)c4)c(C)c3c2=O)cc1 -0.902%
COc1c(C)cccc1C(=O)Nc1ccc(Cl)c(-c2nc3cc(C)ccc3o2)c1 -9.15%
COc1ccc(-c2nc3sc(CCNC(=O)Cc4ccc(Cl)cc4)c(C)n3n2)cc1 -0.525%
CCOc1ccc(CCNC(=O)CSc2nc3ccccc3nc2Cc2ccc(C)cc2)cc1OCC -14.1%
CC(C)CCOc1ccc(Cn2c(=O)sc3ccccc32)cc1 -1.26%
CCN(CC)c1ccc(NC(=O)CN(C)S(=O)(=O)c2cccc3nsnc23)c(C)c1 -13.7%
CCOc1ccc(C2C(=O)N(C3CCCCCC3)CC(=O)N2Cc2ccc(F)cc2)cc1OC (configuration not stated) -1.82%
CCN(CC)c1ccc(C(=O)NCc2ccc3c(c2)CCN3C(=O)c2cccc(C)c2)cc1 -1.45%
CCOc1ccc(CCNC(=O)C(CC(C)C)N2Cc3ccccc3C2=O)cc1OCC (configuration not stated) -2.54%
Cc1ccccc1CN1C(=O)c2ccccc2Sc2ccc(C(=O)O)cc21 -9.27%

Reference: PubChem BioAssay AID493208 (National Center for Advancing Translational Sciences (NCATS), 2011)
